Measurements published in the supplement of paper PMC10670038.
Structures can show the parent of a compound that is named as a salt. ± gives the standard deviation of the averaged measurements. Whole data set: some 2,000 compounds, median “relative cell viability vs DMSO, compound + 0.2 uM CuET” near 1, cut for the lowest 2% near 0.25. The list shows a part of the results.

Test system: TE10
Experiment: relative cell viability vs DMSO, compound + 0.2 uM CuET (fraction); TE10 is an esophageal squamous carcinoma line; higher = less cytotoxic
Conditions: 2 µM; co-treatment: CuET (bis(diethyldithiocarbamate)copper) 0.2 uM; 48 h
Protocol: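 TE10 ESCC cells (1,000/well, 384-well plates) were treated with Selleck bioactive library compounds at 2 uM combined with 0.2 uM CuET (copper diethyldithiocarbamate) for 48 h. Viability was read by CellTiter-Glo and expressed relative to DMSO wells. Two technical replicates (A, B).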

Point of comparison: CN(C)CC(c1ccc(O)cc1)C1(O)CCCCC1 (stereo unspecified) [Desvenlafaxine], relative cell viability 1.09 ± 0.057. Against it:
- Nc1ccc(C(=O)Nc2cccc(-c3nc(N4CCOCC4)c4oc5ncccc5c4n3)c2)cn1 — lower, 0.352 ± 0.019
- CN(C)CCCN1c2ccccc2Sc2ccc(Cl)cc21 [Chlorpromazine HCl] — lower, 0.951 ± 0.033
- Cc1nc(-c2cccnc2)sc1C(=O)Nc1ccccc1-c1cn2c(CN3CCOCC3)csc2n1 — higher, 1.17 ± 0.019
- O=c1ccc2ccccc2o1 [Coumarin] — within error, 1.1 ± 0.068
- Cc1[nH]c2ccccc2c1CCNCc1ccc(/C=C/C(=O)NO)cc1 [Panobinostat (LBH589)] — lower, 0.151 ± 0.0045
- Cc1cc(C)c(S(=O)(=O)n2cc(C)cc2C)c(C)c1 — within error, 1.01 ± 0.095
- O=C(O)[C@H]1O[C@@H](Oc2cc3oc(-c4ccccc4)cc(=O)c3c(O)c2O)[C@H](O)[C@@H](O)[C@@H]1O [Baicalin] — lower, 0.848 ± 0.058
- Cn1cc(-c2ccncc2)c(-c2ccc(OCc3ccc4ccccc4n3)cc2)n1 — lower, 0.844 ± 0.14
- O=C1C(=O)c2ccccc2C(O)=C1C1CCC(c2ccc(Cl)cc2)CC1 (stereo unspecified) [Atovaquone] — within error, 1.12 ± 0.054
- COC1CCN(C(=O)c2cc(Cc3n[nH]c(=O)c4ccccc34)ccc2F)CC1 — higher, 1.28 ± 0.036
- c1cncc(CN2CCC(n3ncc4c(N5CCOCC5)nc(-c5ccc6[nH]ccc6c5)nc43)CC2)c1 — lower, 0.835 ± 0.053
- CCOC(=O)c1ccc(N)cc1 [Benzocaine] — higher, 1.2 ± 0.036
- CCN(CC)CCOC(=O)C(c1ccccc1)c1ccccc1 [Adiphenine HCl] — within error, 1.02 ± 0.1
- OC(CCCN1CCCCC1)(c1ccccc1)c1ccccc1 [Diphenidol HCl] — within error, 1.05 ± 0.025
- CCCCCCCCCCCCc1ccc(S(=O)(=O)Nc2nncs2)cc1 — within error, 1.15 ± 0.021
- Cc1ncc(Cl)cc1NCc1ccc(C(=O)N[C@@H](CC2CCCC2)C(=O)NC2CC2)s1 — within error, 1.19 ± 0.051
- COc1cc(C(C)=O)ccc1O [Apocynin] — within error, 1.13 ± 0.016
- CCOc1ccc2nc3cc(N)ccc3c(N)c2c1 [Ethacridine lactate monohydrate] — lower, 0.915 ± 0.038
- CN(Cc1cnc2nc(N)nc(N)c2n1)c1ccc(C(=O)N[C@@H](CCC(=O)O)C(=O)O)cc1 [Methotrexate] — lower, 0.404 ± 0.018
- Nc1cc(F)ccc1NC(=O)/C=C/c1cnn(C/C=C/c2ccccc2)c1 — within error, 1.01 ± 0.024
- NC(N)=Nc1nc(CSCC/C(N)=N/S(N)(=O)=O)cs1 [Famotidine] — within error, 1.03 ± 0.038
- CC1=C(/C=C/C(C)=C/C=C/C(C)=C\C(=O)O)C(C)(C)CCC1 [Isotretinoin] — within error, 0.854 ± 0.33
- CC/C(=C(/CC)c1ccc(O)cc1)c1ccc(O)cc1 [Diethylstilbestrol] — within error, 1.16 ± 0.024
- CC(C)c1cc2c(N3CCN(C4=NCC(C)(C)S4)CC3)ncnc2s1 [MI-3 (Menin-MLL Inhibitor)] — lower, 0.972 ± 0.023
- COc1cc(OC)c(/C=C/S(=O)(=O)Cc2ccc(OC)c(NCC(=O)O)c2)c(OC)c1 — lower, 0.604 ± 0.066
- OC(CN1CCN(c2cccc(Cl)c2)CC1)C(c1ccccc1)c1ccccc1 (stereo unspecified) — lower, 0.759 ± 0.22
- COc1ccc(-c2ccc3c(N4CCOCC4)nc(N4C[C@@H](C)O[C@@H](C)C4)nc3n2)cc1CO — lower, 0.537 ± 0.22
- O=c1[nH]c(=O)n([C@H]2C[C@H](O)[C@@H](CO)O2)cc1Br [Bromodeoxyuridine (BrdU)] — within error, 0.956 ± 0.16
- COc1cc(NC(C)CCCN)c2ncccc2c1 (stereo unspecified) [Primaquine Diphosphate] — within error, 1.02 ± 0.026
- Cc1ccc([N+](=O)[O-])cc1S(=O)(=O)N(C)/N=C/c1cnc2ccc(Br)cn12 — lower, 0.507 ± 0.015
- CCCCCCCc1ccc(CCc2cccc(O)c2C(=O)O)cc1 — within error, 1.17 ± 0.14
- CCN(CC)CCCCNc1ncc2cc(-c3cc(OC)cc(OC)c3)c(NC(=O)NC(C)(C)C)nc2n1 — higher, 1.28 ± 0.097
- CC[C@@H](CO)NCCN[C@@H](CC)CO [Ethambutol HCl] — within error, 1.17 ± 0.17
- C=CS(=O)(=O)NC1CCN(C(=O)CNc2cc(I)c(Cl)cc2OC)CC1 [K-Ras(G12C) inhibitor 9] — lower, 0.699 ± 0.08
- CCCOc1ccc(C(=O)OCCN(CC)CC)cc1N [Proparacaine HCl] — within error, 0.95 ± 0.092
- C#C[C@]1(O)CC[C@H]2[C@@H]3CCC4=CC(=O)CC[C@@H]4[C@H]3CC[C@@]21CC [Levonorgestrel] — within error, 1.13 ± 0.095
- Cn1cc(-c2ccc3c(c2)CCN3C(=O)Cc2cccc(C(F)(F)F)c2)c2c(N)ncnc21 — lower, 0.897 ± 0.087
- Oc1cccc(-c2nc(N3CCOCC3)c3oc4ncccc4c3n2)c1 — lower, 0.59 ± 0.098
- CC(=O)OCC(=O)[C@H]1CC[C@H]2[C@@H]3CCC4=CC(=O)CC[C@]4(C)[C@H]3CC[C@]12C [Deoxycorticosterone acetate] — within error, 1.16 ± 0.14
- C[C@@H]1COC(Nc2ccc3ncnc(Nc4ccc(OCc5nccs5)c(Cl)c4)c3c2)=N1 [Varlitinib] — within error, 1.04 ± 0.086
- O=C(/C=C/c1ccc(O)c(O)c1)O[C@@H]1C[C@](O)(C(=O)O)C[C@@H](O)[C@H]1O [Chlorogenic Acid] — within error, 1.1 ± 0.11
- CN(C)CC/C=C1/c2ccccc2COc2ccc(CC(=O)O)cc21 [Olopatadine HCl] — within error, 1.06 ± 0.1
- c1ccc(CN(CC2=NCCN2)c2ccccc2)cc1 [Antazoline HCl] — within error, 1.01 ± 0.14
- CN(C)Cc1ccc(S(=O)(=O)n2ccc(/C=C/C(=O)NO)c2)cc1 [Resminostat] — within error, 0.848 ± 0.19
- CCn1cc(NC(=S)Nc2cc(Cl)ccc2OC)c(C(N)=O)n1 — higher, 1.25 ± 0.023
- CC[C@H](C)C[C@H](C)CCCCCCCCC(=O)N[C@H]1C[C@@H](O)[C@@H](NCCN)NC(=O)[C@@H]2[C@@H](O)CCN2C(=O)[C@H]([C@H](O)CCN)NC(=O)[C@H]([C@H](O)[C@@H](O)c2ccc(O)cc2)NC(=O)[C@@H]2C[C@@H](O)CN2C(=O)[C@H]([C@@H](C)O)NC1=O [Caspofungin Acetate] — within error, 1.23 ± 0.25
- Nc1ncnc2n[nH]c(Nc3ccc(F)cc3)c12 — within error, 1.08 ± 0.1
- Cc1ccc(-n2nc(C(C)(C)C)cc2NC(=O)Nc2ccc(OCCN3CCOCC3)c3ccccc23)cc1 [BIRB 796 (Doramapimod)] — within error, 1.16 ± 0.089
- CCCCCCCCCCCC[N+](C)(C)CCOc1ccccc1 [Domiphen Bromide] — within error, 1.04 ± 0.12
- CNC(=O)c1ccc(C)c(-n2c(C)cc(OCc3ccc(F)cc3F)c(Br)c2=O)c1 — higher, 1.36 ± 0.089
- Cc1cc(OCc2nnc(SC3CCCC3)n2-c2cccnc2)ccc1-c1ccc(S(C)(=O)=O)cc1 — lower, 0.771 ± 0.067
- CC(C)(O)c1ccccc1CC[C@@H](SCC1(CC(=O)O)CC1)c1cccc(/C=C/c2ccc3ccc(Cl)cc3n2)c1 [Montelukast Sodium] — the same, 1.088 ± 0.0034
- O=C1NC(=O)C(c2ccccc2)(c2ccccc2)N1 [Phenytoin] — within error, 0.981 ± 0.16
- O=C1NC(=O)C(=Cc2ccc(-c3ccc(F)cc3)o2)S1 (stereo in doubt) — lower, 0.489 ± 0.49
- CN(C)C/C=C/C(=O)Nc1cc2c(Nc3ccc(F)c(Cl)c3)ncnc2cc1O[C@H]1CCOC1 [Afatinib (BIBW2992) Dimaleate] — lower, 0.701 ± 0.038
- CN(C)C/C=C/C(=O)Nc1cc2c(Nc3ccc(F)c(Cl)c3)ncnc2cc1O[C@H]1CCOC1 [Afatinib (BIBW2992)] — lower, 0.765 ± 0.04
- OC[C@@H](O)[C@@H](O)[C@@H](O)CO [Ribitol] — within error, 0.99 ± 0.056
- O=C(Nc1ccccc1)Nc1ccc(-c2ccc(C(=O)[C@@H]3CCC[C@H]3C(=O)O)cc2)cc1 — lower, 0.806 ± 0.08
- O=C(NOCC(O)CO)c1cc(Br)c(F)c(F)c1Nc1ccc(I)cc1F (stereo unspecified) — lower, 0.92 ± 0.085
- CN(C)CC(c1ccc(O)cc1)C1(O)CCCCC1 (stereo unspecified) [Desvenlafaxine Succinate] — higher, 1.28 ± 0.032
- COc1ccc(S(=O)(=O)N(CCO)c2ccccc2CN(C)C/C=C/c2ccc(Cl)cc2)cc1 [KN-93 Phosphate] — within error, 1.06 ± 0.14
- O=C(Nc1ccccc1Br)N[C@@H]1CCN(c2ccc(C(F)(F)F)cn2)C1 — the same, 1.09 ± 0.17
- O=C(c1ccccc1)c1ccc2n1CCC2C(=O)O (stereo unspecified) [Ketorolac] — within error, 1.06 ± 0.016
- CCN(CC)CCCC(C)Nc1nc(C)cc(Nc2ccc3nc(C)cc(N)c3c2)n1 (stereo unspecified) — within error, 1.11 ± 0.029
- O=C(C[S+]([O-])Cc1ccco1)NC/C=C\COc1cc(CN2CCCCC2)ccn1 (stereo unspecified) [Lafutidine] — lower, 0.987 ± 0.017
- C#CCC(Cc1cnc2nc(N)nc(N)c2n1)c1ccc(C(=O)N[C@@H](CCC(=O)O)C(=O)O)cc1 (stereo partly specified) [Pralatrexate] — lower, 0.421 ± 0.035
- N#Cc1c(NC(=O)c2cccc3ccccc23)sc2c1CCCC2 [JNK Inhibitor IX] — lower, 0.653 ± 0.099
- C=CC(=O)Nc1cccc(Nc2nc(Nc3ccc(OCCOC)cc3)ncc2F)c1 — lower, 0.892 ± 0.11
- CCC(=O)Nc1cccc(Oc2nc(Nc3ccc(N4CCN(C)CC4)cc3OC)ncc2Cl)c1 — within error, 0.976 ± 0.088
- COC(=O)Nc1nc2cc([S+]([O-])c3ccccc3)ccc2[nH]1 (stereo unspecified) [Oxfendazole] — lower, 0.861 ± 0.1
- O=C1NCCCc2c1oc1ccc(O)cc21 — higher, 1.22 ± 0.039
- COc1ccccc1OCC(O)COC(N)=O (stereo unspecified) [Methocarbamol] — within error, 1.03 ± 0.083
- Nc1ccn([C@@H]2CS[C@H](CO)O2)c(=O)n1 [Lamivudine] — within error, 1.12 ± 0.031
- CCc1c(Cl)c(O)c(Cl)c(O)c1C(=O)O[C@H]1[C@H](O)[C@H](OC)[C@H](OC/C2=C\C=C\C[C@H](O)/C(C)=C/[C@H](CC)[C@@H](O[C@@H]3OC(C)(C)[C@@H](OC(=O)C(C)C)[C@H](O)[C@@H]3O)/C(C)=C/C(C)=C/C[C@@H]([C@@H](C)O)OC2=O)O[C@@H]1C [Fidaxomicin] — within error, 1.1092 ± 0.00057
- Cc1cc2c(F)c(Oc3ncnn4cc(OC[C@@H](C)O)c(C)c34)ccc2[nH]1 — within error, 1.05 ± 0.038
- O=C(O)CSCC(=O)NC1CCSC1=O (stereo unspecified) [Erdosteine] — lower, 0.966 ± 0.034
- COc1cc(/C=C/C(=O)CC(=O)/C=C/c2ccc(O)c(OC)c2)ccc1O [Curcumin] — lower, 0.656 ± 0.023
- Cc1cc(O)c2c(c1)C(=O)c1cc(O)cc(O)c1C2=O [Emodin] — within error, 0.953 ± 0.1
- O=C1NC(=O)/C(=C/c2cccc(C(F)(F)F)c2)S1 — higher, 1.3157 ± 0.0003
- Cn1cc(-c2ccc3nnc(Sc4ccc5ncccc5c4)n3n2)cn1 — within error, 1.02 ± 0.038
